This is one part of the list. One pool of 16,384 single-stranded DNAs met each Rep nickase domain in vitro at 3 µM enzyme and 37 °C for 1 h; the strands have 90 letters, of which the middle is given. Uncut reads are compared with the no-enzyme pool on a log2 scale; the lower, the more was cut; hits are not called. Reads are scaled to the total, so uncut sequences can rise above 0 when many others are cut.
How the values were obtained:
Experiment in all cases: uncleaved DNA left, log2 of reads against the no-enzyme library (log2 ratio); higher = less cleavage (more negative = more Rep cleavage of the k-mer); sequences stand for … in CTCGTCCG…ACCGGAGA
[1] = system: T1, Rep nickase domain of Muscovy duck circovirus
T1 sequence (residues 1-111, tag not shown): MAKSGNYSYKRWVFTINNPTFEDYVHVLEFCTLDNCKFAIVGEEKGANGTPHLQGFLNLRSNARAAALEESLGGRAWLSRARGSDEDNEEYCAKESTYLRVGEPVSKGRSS
Description: (§1)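 A pool of 90-nt single-stranded DNAs with seven random bases just before the constant AC of the nick site (name = the seven bases) was cut by 3 µM recombinant His6-SUMO-tagged Rep nickase domain (300 nM DNA, 50 mM HEPES pH 8.0, 50 mM NaCl, 1 mM MnCl2, 1 h, 37 °C, three replicates). Uncut DNA was amplified and sequenced.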

[2] = system: T2, Rep nickase domain of banana bunchy top virus
T2 sequence (residues 1-94, tag not shown): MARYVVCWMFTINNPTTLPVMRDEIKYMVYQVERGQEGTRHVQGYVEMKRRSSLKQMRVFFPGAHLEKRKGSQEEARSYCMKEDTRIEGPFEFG
Description: as §1

[3] = system: T3, Rep nickase domain of cabbage leaf curl virus
T3 sequence (residues 1-116, tag not shown): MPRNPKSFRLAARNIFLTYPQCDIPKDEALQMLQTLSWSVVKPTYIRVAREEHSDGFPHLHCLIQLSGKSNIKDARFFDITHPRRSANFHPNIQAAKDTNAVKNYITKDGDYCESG
Description: as §1

[4] = system: T4, Rep nickase domain of chickpea chlorotic dwarf virus
T4 sequence (residues 1-124, tag not shown): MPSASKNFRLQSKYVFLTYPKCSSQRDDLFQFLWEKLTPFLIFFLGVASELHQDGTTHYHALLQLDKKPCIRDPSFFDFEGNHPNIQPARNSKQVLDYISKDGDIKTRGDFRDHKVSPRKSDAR
Description: as §1

[5] = system: T5, Rep nickase domain of faba bean necrotic yellows virus
T5 sequence (residues 1-98, tag not shown): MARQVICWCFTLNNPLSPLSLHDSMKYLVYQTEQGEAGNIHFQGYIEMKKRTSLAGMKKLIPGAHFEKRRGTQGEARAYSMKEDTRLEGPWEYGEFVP
Description: as §1

[6] = system: T6, Rep nickase domain of maize striate mosaic virus
T6 sequence (residues 1-117, tag not shown): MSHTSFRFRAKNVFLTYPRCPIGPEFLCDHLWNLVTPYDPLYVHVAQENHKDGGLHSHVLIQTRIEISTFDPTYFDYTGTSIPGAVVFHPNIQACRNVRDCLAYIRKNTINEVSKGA
Description: as §1

[7] = system: T7, Rep nickase domain of porcine circovirus 2
T7 sequence (residues 2-116, tag not shown): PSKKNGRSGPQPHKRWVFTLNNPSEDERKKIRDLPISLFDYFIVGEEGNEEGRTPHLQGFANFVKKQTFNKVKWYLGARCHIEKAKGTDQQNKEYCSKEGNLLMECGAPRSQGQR
Description: as §1

[8] = system: T8, Rep nickase domain of tomato yellow leaf curl virus
T8 sequence (residues 1-136, tag not shown): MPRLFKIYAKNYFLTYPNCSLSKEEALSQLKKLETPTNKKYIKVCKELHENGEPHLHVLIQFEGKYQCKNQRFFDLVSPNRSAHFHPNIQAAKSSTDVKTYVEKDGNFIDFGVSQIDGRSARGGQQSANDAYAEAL
Description: as §1

[9] = system: T9, Rep nickase domain of wheat dwarf virus
T9 sequence (residues 1-137, tag not shown): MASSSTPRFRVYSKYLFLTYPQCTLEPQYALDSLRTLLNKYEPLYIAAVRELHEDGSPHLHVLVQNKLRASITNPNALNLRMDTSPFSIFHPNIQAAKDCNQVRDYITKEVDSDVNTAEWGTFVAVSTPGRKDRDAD
Description: as §1

Sequence | uncleaved DNA left (log2) [1] | uncleaved DNA left (log2) [2] | uncleaved DNA left (log2) [3] | uncleaved DNA left (log2) [4] | uncleaved DNA left (log2) [5] | uncleaved DNA left (log2) [6] | uncleaved DNA left (log2) [7] | uncleaved DNA left (log2) [8] | uncleaved DNA left (log2) [9]
TGTATCT | -0.00222 | 0.0837 | 0.241 | -0.817 | -0.0991 | 0.665 | -1.25 | 0.0639 | 0.00911
ACACTGC | 0.144 | 0.0282 | -0.397 | -0.395 | 0.00218 | -0.814 | 0.183 | 0.0128 | -0.0412
TTTATCA | 0.0357 | 0.145 | 0.629 | 0.849 | -0.0286 | 1.49 | -0.0211 | 0.145 | 0.251
CGAGCAT | 0.189 | 0.201 | 0.0398 | 0.335 | 0.116 | 0.529 | -0.169 | -0.00632 | 0.195
CCTCTCA | 0.106 | 0.0818 | 0.0497 | -1.16 | 0.189 | -0.427 | -0.0316 | 0.197 | 0.164
CACGGGT | 0.0539 | 0.00219 | 0.253 | 0.992 | -0.14 | 1.26 | 0.151 | -0.117 | -0.0872
AGGGATT | -0.0649 | -0.0371 | 0.211 | 1.41 | -0.0989 | 1.7 | 0.0663 | -0.0424 | 0.00308
TTCCTGT | -0.0597 | -0.0354 | 0.0488 | -0.447 | -0.0134 | -0.241 | 0.000939 | -0.0791 | -0.0745
ACACTGG | -0.00356 | -0.0487 | -0.74 | -0.554 | -0.0768 | -1.12 | 0.0759 | -0.0341 | -0.18
AACGGCG | 0.0394 | 0.0893 | -0.725 | 0.509 | 0.124 | -0.458 | 0.255 | 0.0768 | 0.0226
GTGCAGC | -0.00814 | -0.0953 | 0.17 | 0.563 | -0.0566 | 0.934 | -0.0787 | -0.0431 | -0.0542
CATACCT | -0.0682 | -1.58 | -0.494 | -2.83 | 0.0301 | -0.754 | -1.7 | -0.097 | -0.174
GCTCGAG | 0.0166 | -0.0265 | 0.141 | 0.752 | 0.0742 | -0.23 | 0.0516 | -0.0546 | 0.0343
TAAGAAC | 0.152 | 0.149 | 0.0444 | -0.764 | 0.111 | -0.281 | 0.216 | 0.0601 | 0.176
CGGTTCT | -0.51 | -0.138 | 0.00249 | -0.358 | 0.00108 | 0.507 | -1.81 | -0.128 | -0.0162

Source: the supplement of paper PMC7826260
